Laboratory results taken from PMC4336329 (PLoS ONE, 2015).
Screen size: about 310,000 compounds; about 2,200 (0.71%) showed an effect of 50% or more. The effect is printed as a negative number. The list shows a part of the results.

Each compound was assayed against human ether-à-go-go-related gene (hERG) potassium channel (human, UniProt Q12809) (assay: primary screen, population patch clamp on CHO cells stably expressing hERG).
Chain of human ether-à-go-go-related gene (hERG) potassium channel (Q12809 whole entry, looked up): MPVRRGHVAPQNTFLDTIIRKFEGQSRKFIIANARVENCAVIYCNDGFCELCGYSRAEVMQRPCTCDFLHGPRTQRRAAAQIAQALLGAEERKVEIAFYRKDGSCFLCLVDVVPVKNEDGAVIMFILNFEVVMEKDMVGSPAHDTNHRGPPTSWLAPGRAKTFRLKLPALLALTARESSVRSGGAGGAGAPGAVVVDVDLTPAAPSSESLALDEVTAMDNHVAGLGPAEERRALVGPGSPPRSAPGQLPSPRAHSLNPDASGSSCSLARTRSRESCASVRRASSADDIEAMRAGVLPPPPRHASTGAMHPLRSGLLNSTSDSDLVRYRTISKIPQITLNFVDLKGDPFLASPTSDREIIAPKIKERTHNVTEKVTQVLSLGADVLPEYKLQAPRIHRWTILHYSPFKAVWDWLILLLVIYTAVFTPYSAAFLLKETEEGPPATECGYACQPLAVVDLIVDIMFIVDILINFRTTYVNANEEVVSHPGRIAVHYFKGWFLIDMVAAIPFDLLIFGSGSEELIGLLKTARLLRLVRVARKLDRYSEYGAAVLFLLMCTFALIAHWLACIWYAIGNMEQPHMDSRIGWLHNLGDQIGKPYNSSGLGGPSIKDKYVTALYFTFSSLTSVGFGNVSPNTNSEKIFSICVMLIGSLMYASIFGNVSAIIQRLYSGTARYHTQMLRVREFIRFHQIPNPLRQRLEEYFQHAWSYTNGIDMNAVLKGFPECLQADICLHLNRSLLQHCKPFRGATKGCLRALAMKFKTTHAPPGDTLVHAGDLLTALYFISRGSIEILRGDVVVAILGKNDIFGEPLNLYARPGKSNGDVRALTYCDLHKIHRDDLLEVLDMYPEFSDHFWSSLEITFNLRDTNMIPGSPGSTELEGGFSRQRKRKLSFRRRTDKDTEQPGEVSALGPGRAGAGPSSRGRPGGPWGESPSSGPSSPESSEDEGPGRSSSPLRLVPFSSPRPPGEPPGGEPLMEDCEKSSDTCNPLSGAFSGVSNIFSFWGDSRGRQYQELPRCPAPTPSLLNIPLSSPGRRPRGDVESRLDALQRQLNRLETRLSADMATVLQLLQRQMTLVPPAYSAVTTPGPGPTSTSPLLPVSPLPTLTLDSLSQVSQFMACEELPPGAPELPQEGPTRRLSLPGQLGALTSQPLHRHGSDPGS
With `COc1ccc(NC2CCCN(C(=O)c3ccc4[nH]c(C)c(C)c4c3)C2)cc1OC` (centres unmarked) the “hERG current change (%, negative = inhibition) at 1uM” value was 9.32%. `CN1/C(=C\C(=O)COC(=O)C2COc3ccccc3O2)C(C)(C)c2ccccc21` (centres unmarked) was tested, and the “hERG current change (%, negative = inhibition) at 1uM” value was 9.71%. In the case of `CC(C)c1ccc(O)c(NC(=O)c2cccnc2)c1`, the “hERG current change (%, negative = inhibition) at 1uM” value is reported as 5.07%. For `CCOC(=O)Nc1cccc2ccccc12`, the “hERG current change (%, negative = inhibition) at 1uM” value was 12.3%. For `CCN(CC(=O)Nc1ccc(NC(C)=O)cc1)C(=O)c1ccc(=O)n(C)n1`, the “hERG current change (%, negative = inhibition) at 1uM” value was 10.1%. `COc1ccc(/C=[N+](\[O-])C2N(c3ccccc3)C(=S)SC2(C)C)cc1OC` (centres unmarked) was tested, and the “hERG current change (%, negative = inhibition) at 1uM” value was 8.06%. With `Cc1ccc(N2N=C(C(=O)O)CCC2=O)cc1Cl` the “hERG current change (%, negative = inhibition) at 1uM” value was -19.4%. `Cc1ccc(S(=O)(=O)N2CCOCC2)cc1NC(=O)COC(=O)c1n[nH]c(=O)c2ccccc12` was tested, and the “hERG current change (%, negative = inhibition) at 1uM” value was 14.4%. In the case of `COc1ccc2[nH]c(C)c(CCNCc3cc(OC)c(OC)c(OC)c3)c2c1`, the “hERG current change (%, negative = inhibition) at 1uM” value is reported as 14.6%. For `O=C(COC(=O)c1ccc2c(c1)OCCO2)NCc1ccccc1`, the “hERG current change (%, negative = inhibition) at 1uM” value was 13.9%. `CN(C)S(=O)(=O)c1cccc(C(=O)OCC(=O)N2c3ccccc3NC(=O)C2(C)C)c1` was tested, and the “hERG current change (%, negative = inhibition) at 1uM” value was 7.91%. In the case of `CC(C)(C)NC(=O)COC(=O)c1ccccc1Oc1ccccc1`, the “hERG current change (%, negative = inhibition) at 1uM” value is reported as -0.247%. `CCOC(=O)[C@H]1[C@H]2COc3ccc(OC)cc3[C@@H]2N2C(=O)c3cc(C)ccc3NC(=O)[C@@]12C` was tested, and the “hERG current change (%, negative = inhibition) at 1uM” value was 8.82%. In the case of `CC(=O)c1cccc(N(C(=O)CNC(=O)c2ccco2)C(C(=O)NC2CCCC2)c2ccc(C)o2)c1` (centres unmarked), the “hERG current change (%, negative = inhibition) at 1uM” value is reported as 17.3%. In the case of `CCOc1ccc(-c2c(=O)n(OCc3nc4ccccc4[nH]3)c3ccccc3[n+]2[O-])cc1`, the “hERG current change (%, negative = inhibition) at 1uM” value is reported as 11.5%. With `CCCc1cc(=O)oc2cc(OCc3ccc(C(=O)O)cc3)ccc12` the “hERG current change (%, negative = inhibition) at 1uM” value was 21.4%. In the case of `Cn1cnnc1SCC(=O)Nc1cc(C(F)(F)F)ccc1N1CCOCC1`, the “hERG current change (%, negative = inhibition) at 1uM” value is reported as 9.51%. With `Cc1nn(Cc2ccc(Cl)cc2)c(C)c1NC(=O)c1cc(-c2ccco2)on1` the “hERG current change (%, negative = inhibition) at 1uM” value was 9.25%. For `Cc1ccc(N(Cc2ccco2)C(=O)c2cccc(S(=O)(=O)N(C)C)c2)cc1`, the “hERG current change (%, negative = inhibition) at 1uM” value was -0.391%. In the case of `O=C(NCCc1ccc(Cl)cc1)C1CCCN1C(=O)Nc1ccccc1` (centres unmarked), the “hERG current change (%, negative = inhibition) at 1uM” value is reported as 8.89%. `COc1ccc(OC)c2c1sc(=NC(=O)C1CCCCC1)n2C` was tested, and the “hERG current change (%, negative = inhibition) at 1uM” value was -1.81%. For `O=C(N/N=C1\CCCc2ccccc21)c1ccccc1[N+](=O)[O-]`, the “hERG current change (%, negative = inhibition) at 1uM” value was 1.68%. For `O=C1c2cc3ccccc3c(-c3ccccc3)c2C(=O)N1c1ccccn1`, the “hERG current change (%, negative = inhibition) at 1uM” value was 11.3%.
